# In the supplement of paper PMC4466236:
# Whole data set: some 33,000 sequences, median “E-score (dimensionless, -0.5 to 0.5)” near -0.058, cut for the highest 2% near 0.35. Some of the results follow.
# System: MvaT
# Test: PBM 8-mer E-score (mean of HK and ME arrays) (E-score (dimensionless, -0.5 to 0.5)); higher = stronger relative binding preference; most listed sequences are background and not binding sites
# How it was run: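 Full-length P. aeruginosa MvaT carrying an N-terminal glutathione S-transferase tag was tested by protein binding microarray following a previously described protocol. Two universal double-stranded 60-mer arrays, ME and HK, were used, each with a constant 25-mer primer region and a variable 35-mer region covering all 8-mers. The rank-based E-score is the mean of the two arrays, parsed with a custom script. Its range runs from -0.5 to 0.5 for each 8-mer.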
row,Sequence,PBM 8-mer E-score
1,AATAACTG,0.318
2,CCATATCC,-0.0153
3,AGGGCGAT,-0.151
4,CGTGCGAA,-0.0494
5,GCCTTCGC,-0.258
6,ACCCAAAA,0.0589
7,CAAGGCAA,-0.0335
8,GGTACGTA,-0.12
9,AGCAGACT,-0.0901
10,TATATACA,0.456
11,ACCCGGCG,-0.211
12,GGACTAGA,0.0132
13,ACGCGAAT,0.146
14,TAAACGAA,0.225
15,ACATGTAT,0.304
16,CGCCCTCA,-0.108
17,CGCAAGCA,-0.124
18,AGATGACC,-0.208
19,ATGAAGGC,-0.0572
20,CTTAACCA,0.0313
21,ACCGCAGG,-0.197
22,CATGTGAC,-0.0453
23,AACATAGA,0.166
24,AACTTCTT,0.315
25,TGACATAA,0.195

row,Sequence,PBM 8-mer E-score
1,AAGGTAAA,0.0963
2,CGCGTCGC,-0.114
3,ACCATTAT,0.332
4,AACAATCT,0.0729
5,AGAAGTGG,-0.0269
6,TATTAACA,0.437
7,CACGATGG,-0.0807
8,AATGCGAG,-0.0343
9,GCACCTAA,0.00676
10,AGTCGGTG,-0.0106
11,CGTGGTTA,-0.0533
12,CCGCCTTA,-0.107
13,CAGGTTGG,-0.107
14,ACAATGCA,0.131
15,CCGCACGG,-0.212
16,CGAAAGCC,-0.21
17,ATGTTCAA,0.155
18,AGATTCCA,-0.159
19,AAGTTCCT,0.134
20,AGTACTAA,0.258
21,AAGACACG,-0.0397
22,AGTCCGTC,-0.103
23,ACTGTTGA,-0.0844
24,AGTATCTG,0.119
25,ACGATGCA,0.0104

row,Sequence,PBM 8-mer E-score
1,ATAGTAGA,0.249
2,GAGGTATA,0.121
3,TATATGAA,0.382
4,CCCCTGAA,-0.297
5,ATGTATGG,0.0711
6,AGACCCCC,-0.401
7,ATCTATTA,0.301
8,AGCGCGGA,-0.105
9,CTTTGCCC,-0.0596
10,ACGCACTA,0.12
11,GCTAGTTA,0.186
12,CCTTCAAG,-0.246
13,AGCACGAT,-0.173
14,AAGGGTAG,-0.155
15,CATCCAAG,-0.116
16,ACGAGCCC,-0.179
17,GCAGAATA,0.15
18,CAACTCAC,0.0639
19,ATACGGGC,-0.176
20,CAGTCTGG,-0.0418
21,ATTCTATG,-0.0228
22,AGGATATG,0.0859
23,ATACCGAA,0.185
24,TGAACAAA,0.0923
25,ACTGGCAA,0.00578

row,Sequence,PBM 8-mer E-score
1,ACCGTAAA,0.0757
2,AAATGTGG,0.184
3,GCGCAAAA,0.239
4,AAACGTAT,0.222
5,GGACCCCC,-0.314
6,GAGCGCGC,-0.117
7,AAGTTCAT,0.293
8,CACGTTGC,-0.2
9,AGGGAGTA,-0.0415
10,AGGCGGCC,-0.337
11,AGGTCGAC,-0.0553
12,ACTTGCAC,0.203
13,AGACCACC,-0.205
14,TATACGAA,0.165
15,GGCCAACC,-0.159
16,AATTCCAC,0.0822
17,ACACTCCT,0.0228
18,AATGATAA,0.242
19,ATCGACGC,-0.177
20,GCGATACC,-0.0525
21,CCTTAGCA,-0.228
22,AGAACTGA,0.0644
23,TCTGGCCA,-0.097
24,ATGGGGCG,-0.0818
25,GGATTAAA,0.232

row,Sequence,PBM 8-mer E-score
1,GCGGTTGA,-0.165
2,ATTTAGTA,0.257
3,GGCCAGAC,-0.26
4,AGACCTTC,-0.219
5,GCCCATCA,-0.205
6,CAGAGATG,-0.178
7,CATCTTCA,0.0123
8,CCTGACTC,-0.279
9,CCCAAGAC,-0.249
10,CTCTCGCA,-0.219
11,AACTGAAA,0.1
12,GCGATCCC,-0.265
13,GCGCCCGC,-0.317
14,TCAATTGA,0.212
15,CCAGCGCG,-0.252
16,CATCGGTC,-0.2
17,GCAAGAAC,-0.0598
18,CTTGTCGC,-0.147
19,TATCGAAA,0.144
20,TACGCATA,-0.0832
21,AACTAAAG,0.202
22,AGGGAACA,-0.0361
23,ACTGAGAT,0.0213
24,ATCAAGGG,-0.179
25,AAATATGG,0.278

row,Sequence,PBM 8-mer E-score
1,CTTGGGCC,-0.354
2,CGAGCACC,-0.211
3,ACGACGAT,0.0121
4,CAGGATTA,0.0198
5,GTATCAAC,0.167
6,AAGTCAAA,0.117
7,AAGCACGG,-0.16
8,TGAGGACA,0.00325
9,GCTCGCAC,-0.22
10,CCTACAGC,-0.247
11,CGGCCGGA,-0.172
12,TCTAACCA,0.0514
13,CCGCTTAG,-0.0855
14,CCCACAGG,-0.29
15,AAACATTA,0.303
16,AACGGCAC,-0.0645
17,CTCCGAAG,-0.162
18,CAGAAATA,0.274
19,CTACAGAA,0.00706
20,ATCATCGC,0.0285
21,CCTTTGTC,-0.203
22,GAGCTCGA,-0.127
23,ATGCCCTC,-0.354
24,TAGGCACA,-0.107
25,GTGATTTA,0.176

row,Sequence,PBM 8-mer E-score
1,TCCGGGAA,-0.103
2,CAGAGATC,-0.143
3,CCCTTGTA,0.0407
4,GCATGCCC,-0.221
5,GGGTTGAC,-0.213
6,AAAAGGAG,-0.107
7,AGACGACG,-0.12
8,ATCCAGTA,0.0478
9,AATTTTTG,0.194
10,AATCGTGG,-0.0233
11,CCCTCACG,-0.188
12,ACTGCTTA,0.178
13,CACCATTA,0.167
14,ACCACAGA,0.00601
15,AAATCGTC,-0.0137
16,AGAGCCAG,-0.199
17,CATCTCGG,-0.18
18,ATATGACG,0.195
19,CTAAAGAA,0.243
20,ACCGCGGG,-0.157
21,AACGCTTC,-0.149
22,AACCACCA,-0.0466
23,CTCTAGAC,-0.178
24,ACATACTA,0.278
25,ATGAAAAG,0.22

row,Sequence,PBM 8-mer E-score
1,AGCCGCAT,-0.171
2,ACGTCCCT,-0.167
3,ACGATAAA,0.193
4,ATATCTGC,0.222
5,ACTGCCCG,-0.178
6,CTCAAACA,0.0497
7,TAGGCCCA,-0.168
8,AAAGTAGG,0.0451
9,AGAGGCTG,-0.304
10,GTTGACTA,0.129
11,ACATGTAA,0.361
12,GCCTTGGA,-0.206
13,AACTCTCT,0.0164
14,TAAATTAA,0.437
15,ACGACAAC,0.0764
16,ATGTGAAC,0.113
17,AGCGCTTA,-0.159
18,ATCTAGCA,0.152
19,GGCGCTTA,0.0328
20,ATTGCACC,0.0315
21,CCTTGATA,0.0131
22,GGGGAACC,-0.283
23,TGGTCACA,-0.147
24,CTGACCAA,-0.0913
25,AGCAACCT,-0.211

row,Sequence,PBM 8-mer E-score
1,GCACCCCC,-0.202
2,ACCGTGAT,-0.129
3,ACCTGACG,-0.127
4,ACCGGGTG,-0.226
5,ACCACGTC,-0.269
6,CTCTCGTA,-0.0316
7,AGCAGTAC,0.0828
8,GCAATTCC,0.00763
9,ACCACATC,-0.0359
10,ATGTTGAG,0.126
11,AACTTTGG,0.286
12,AACAGGTG,-0.141
13,CCAAATCG,-0.0865
14,ACAATACC,0.143
15,GGGGTACA,-0.0667
16,CCTCAGAC,-0.153
17,GCAATGGA,-0.0761
18,ACTACCGG,-0.0644
19,CTGGGGCC,-0.185
20,AAACAAGT,0.127
21,AAGTGGCA,-0.105
22,GATGCCCC,-0.271
23,AGCCCCGC,-0.235
24,CGCTAATA,0.235
25,GTTAAACA,0.282

row,Sequence,PBM 8-mer E-score
1,CTGCCTCA,-0.248
2,GATTAGCA,-0.0207
3,TCGCAACA,0.102
4,ATTGACCA,-0.0249
5,CAGAGGTA,-0.2
6,GGATCCAC,-0.209
7,GATGCCGC,-0.185
8,GGGCTCAA,-0.301
9,AATTCGCA,0.167
10,CGAGCTCG,-0.124
11,GGCGTAGA,-0.167
12,CTAACACC,0.0346
13,CGCGTAGC,-0.129
14,CCCTACGG,-0.245
15,GATCACGA,-0.0215
16,CTAGAATA,0.229
17,ATACTCGC,0.143
18,GACACTAC,-0.194
19,CCTTCAGC,-0.267
20,CCGCGGAG,-0.273
21,CAGACATA,0.126
22,ATACATCA,0.192
23,ACTAGCGA,-0.0912
24,AAACGGCA,0.0119
25,GTCTTCAA,0.117

row,Sequence,PBM 8-mer E-score
1,CCATTTGA,0.000356
2,CGTGCTAA,0.0161
3,AATCTTGT,0.0955
4,GTCGCAGA,-0.201
5,ACCCTCCC,-0.077
6,GATCGACA,-0.231
7,ACGTCAAC,-0.0213
8,TACTCCAA,0.097
9,AACGAAGG,-0.134
10,TCTTCGCA,-0.0246
11,CTTCAGTC,-0.175
12,GATCAGGC,-0.219
13,ATTGAGTG,0.14
14,AGTCTAGA,-0.0983
15,TCCAAGGA,-0.0392
16,GAGCACTA,-0.0139
17,ATCGCAAA,0.0978
18,GCGCTGGA,-0.137
19,TATTGCCA,0.178
20,CGAAGTCA,-0.0654
21,ATTCGCTC,-0.0854
22,AAGATGGA,-0.103
23,GCTGCCCA,-0.142
24,AGCGTTGG,-0.19
25,GCTAATCA,0.0157

row,Sequence,PBM 8-mer E-score
1,ACAGCTCC,-0.144
2,GATGTTCC,-0.0754
3,ATTCGTAC,0.113
4,AAGAGATA,0.264
5,TACAATCA,0.213
6,AAATGTAG,0.0975
7,CCGTATGC,-0.153
8,CAGTTAAA,0.254
9,AGCCCTCG,-0.302
10,TTCTTAAA,0.165
11,AACAGATG,-0.128
12,GCGCGACC,-0.249
13,GTCCATGA,-0.196
14,CAGAAGGA,-0.283
15,AACCTAAG,-0.0643
16,AACTAGGG,0.0199
17,ACAAAAAA,0.21
18,CCCGCAAA,-0.0361
19,AAACAAAA,0.278
20,TACCTAGA,0.00753
21,CAGGAAAA,0.123
22,CGCGAGAA,-0.00932
23,CACTGTCA,-0.00906
24,CTCGCCTA,0.0159
25,CGGACCAC,-0.254

row,Sequence,PBM 8-mer E-score
1,CATTTGTA,0.188
2,AAAGTTAC,0.212
3,AGGGGCAT,-0.105
4,GGTATTAA,0.34
5,AGACTGAG,-0.0794
6,AGCCCGCT,-0.304
7,CGACCATA,-0.0528
8,ATACGTCG,0.0454
9,AAAGACAT,0.0953
10,TACAAATA,0.355
11,CGCCTGCA,-0.25
12,ACGGACTG,-0.213
13,CGAACTAA,0.25
14,AAAAACCA,0.119
15,GGAAATCC,-0.0433
16,GACGACGA,0.0375
17,GCGATAAC,0.0226
18,CATGTGAG,-0.162
19,ACAATGCC,-0.0495
20,ATAAAGGG,0.0945
21,GCCTTGCA,-0.217
22,CCTCTAAA,-0.0345
23,AGCATCTC,-0.227
24,AGCAGAGC,-0.303
25,AGGACGTC,-0.222

row,Sequence,PBM 8-mer E-score
1,CACCATCG,-0.148
2,ACCCTCTC,-0.289
3,GTCCCTAA,-0.207
4,CTCGCAAA,-0.0615
5,GACTGTAC,-0.0739
6,GCACAAAA,0.159
7,CATTACGA,0.0396
8,AACGATAA,0.241
9,ATAACCCG,0.156
10,CCTGGGAA,-0.216
11,CCGATTCG,-0.146
12,ACGGTCAA,-0.0499
13,CCTGATCA,-0.152
14,CGTCATCC,-0.217
15,AAAGGATC,-0.143
16,CGAACCCA,-0.131
17,AAACTCTC,0.0917
18,CATGGTTA,0.103
19,AAGGACTT,0.0123
